Test results as given in the supplement of paper PMC7125110.
± gives the standard error. Variants at the floor of the assay are shown more often than the library holds them.

B1: glmS ribozyme (parent)
chain: AUAAAAGCGCCAGAACUACAGAAAUGUAGUUGACGAGGAGGAGGUUUAUCGAAUUUUCGGCGGAUGCCUCCAAA

Experiments:
Settings in all cases: with glucosamine-6-phosphate
glucosamine-6-phosphate [1] = variants of: B1; test: self-cleavage kobs at 640 uM GlcN6P; higher = faster cleavage; RNA array
Summary of the method: (§1)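 Barcoded ribozyme variants, transcribed in situ by E. coli RNA polymerase on sequenced MiSeq chips, were followed via a hybridised Cy3 probe at 37 °C. Glucosamine-6-phosphate ranged from 40 μM to 10 mM in HEPES/KCl/Mg(OAc)2 buffer. kobs came from decay fits to per-tile medians, and kcat and KM from weighted Michaelis–Menten fits.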

glucosamine-6-phosphate [2] = variants of: B1; test: self-cleavage kobs at 160 uM GlcN6P; higher = faster cleavage; RNA array
Summary of the method: as §1

glucosamine-6-phosphate [3] = variants of: B1; test: self-cleavage kobs at 2500 uM GlcN6P; higher = faster cleavage; RNA array
Summary of the method: as §1

glucosamine-6-phosphate [4] = variants of: B1; test: self-cleavage kobs at 10000 uM GlcN6P; higher = faster cleavage; RNA array
Summary of the method: as §1

Variant | self-cleavage kobs at 640 uM GlcN6P (glucosamine-6-phosphate [1]) | self-cleavage kobs at 160 uM GlcN6P (glucosamine-6-phosphate [2]) | self-cleavage kobs at 2500 uM GlcN6P (glucosamine-6-phosphate [3]) | self-cleavage kobs at 10000 uM GlcN6P (glucosamine-6-phosphate [4])
AUAAAAGCGCCAGAACUACAGAAAUGUAGUUGACGAGGAGGAGGUUUAUCGAAUUUCCGGCGUGUGCCUCCAAA [U57C G63U A64G] | < 1e-05 s⁻¹ | < 1e-05 s⁻¹ | – | –
AUAAAAGCGCCAGAACUACAGAAAUGUAGUUGACGAGGAGGAGGUUUAUCGAAUUUACGGCGUAUGCCUCCAAA [U57A G63U] | < 1e-05 s⁻¹ | – | – | –
AUAAAAGCGCCAGAACUACAGAAAUGUAGUUGACGAGGAGGAGGUUUAUCGAACUUUCGGGGGAUGCCUCCAAA [U54C C61G] | < 1e-05 s⁻¹ | – | < 1e-05 s⁻¹ | –
AUAAAAGCGCCAGAACUACAGAAAUGUAGUUGACGAGGAGGAGGUUUAUCGAAUUUUAGGCGGAUUCCUCAAAA [C58A G66U C71A] | < 1e-05 s⁻¹ | – | < 1e-05 s⁻¹ | –
AUAAAAGCGCCAGAACUACAGAAAUGUAGUUGACGAGGAGGAGGUUUAUCGAAUUUGCGGCGGAUGCCUCUAAA [U57G C71U] | 3.26e-05 ± 1.2e-05 s⁻¹ | – | 1.65e-05 ± 8e-06 s⁻¹ | 4.47e-05 ± 6.6e-06 s⁻¹
AUAAAAGCGCCAGAACUACAGAAAUGUAGUUGACGAGGAGGAGGUUUAUCGAAUUUUCUGCCGAUGCCUCCAAA [G59U G62C] | < 1e-05 s⁻¹ | < 1e-05 s⁻¹ | < 1e-05 s⁻¹ | < 1e-05 s⁻¹
AUAAAAGCGCCAGAACUACAGAAAUGUAGUUGACGAGGAGGAGGUUUAUCGAAUUUUAGCAGGAUGCCUCCAAA [C58A G60C C61A] | < 1e-05 s⁻¹ | < 1e-05 s⁻¹ | – | –
AUAAAAGCGCCAGAACUACAGAAAUGUAGUUGACGAGGAGGAGGUUUAUCGAAUAUUCGGCGGACGCCUCCAAA [U55A U65C] | 0.0002 ± 2.9e-05 s⁻¹ | 7.83e-05 ± 1.4e-05 s⁻¹ | 0.000471 ± 6.1e-05 s⁻¹ | –
AUAAAAGCGCCAGAACUACAGAAAUGUAGUUGACGAGGAGGAGGUUUAUCGAAUUUUAGGCGGAUGCCCCCAAA [C58A U69C] | 4.91e-05 ± 1e-05 s⁻¹ | 3.58e-05 ± 1.2e-05 s⁻¹ | 9.46e-05 ± 2.2e-05 s⁻¹ | 0.000107 ± 1.5e-05 s⁻¹
AUAAAAGCGCCAGAACUACAGAAAUGUAGUUGACGAGGAGGAGGUUUAUCGAAUUCUCGGCGGAUGGCUCCAAA [U56C C67G] | < 1e-05 s⁻¹ | < 1e-05 s⁻¹ | – | < 1e-05 s⁻¹
AUAAAAGCGCCAGAACUACAGAAAUGUAGUUGACGAGGAGGAGGUUUAUCGAAUGUUCGGCGGAUGCCGCCAAA [U55G U69G] | 8.9e-05 ± 1.9e-05 s⁻¹ | 8.02e-05 ± 1.9e-05 s⁻¹ | – | 6.23e-05 ± 1.7e-05 s⁻¹
AUAAAAGCGCCAGAACUACAGAAAUGUAGUUGACGAGGAGGAGGUUUAUCGAAUUAUGGGCGGAUGCCUCCAAA [U56A C58G] | 4.15e-05 ± 9.1e-06 s⁻¹ | – | 0.000121 ± 1.6e-05 s⁻¹ | –
AUAAAAGCGCCAGAACUACAGAAAUGUAGUUGACGAGGAGGAGGUUUAUCGAAUUCUCGGCGAAUGCCUCCAAA [U56C G63A] | < 1e-05 s⁻¹ | – | – | –
AUAAAAGCGCCAGAACUACAGAAAUGUAGUUGACGAGGAGGAGGUUUAUCGAAUUUUGUGCGGAUGCGUCCAAA [C58G G59U C68G] | 4.54e-05 ± 1.7e-05 s⁻¹ | – | – | –
AUAAAAGCGCCAGAACUACAGAAAUGUAGUUGACGAGGAGGAGGUUUAUCGAAUUUCCGGCGGAUGCCUCCAAA [U57C] | 5.24e-05 ± 1.5e-06 s⁻¹ | 1.34e-05 ± 2.2e-06 s⁻¹ | 0.000136 ± 3.2e-06 s⁻¹ | 0.000236 ± 4.4e-06 s⁻¹
